Measurements from patent publication US11773160 (ANAVEON, dated 2023).

T1: trimeric IL-2 receptor on HEK-Blue IL-2 reporter cells (UniProt P01589 22-272; P14784 27-551; P31785 23-369, limits assumed)
T1 sequence (looked up) 1: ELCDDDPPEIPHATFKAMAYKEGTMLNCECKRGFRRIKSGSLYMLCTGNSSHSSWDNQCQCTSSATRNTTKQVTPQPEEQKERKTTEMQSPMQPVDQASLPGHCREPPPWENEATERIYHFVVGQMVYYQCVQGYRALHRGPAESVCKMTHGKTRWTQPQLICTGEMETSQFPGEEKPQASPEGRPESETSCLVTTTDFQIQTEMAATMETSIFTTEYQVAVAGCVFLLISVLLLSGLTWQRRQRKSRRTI
T1 sequence (looked up) 2: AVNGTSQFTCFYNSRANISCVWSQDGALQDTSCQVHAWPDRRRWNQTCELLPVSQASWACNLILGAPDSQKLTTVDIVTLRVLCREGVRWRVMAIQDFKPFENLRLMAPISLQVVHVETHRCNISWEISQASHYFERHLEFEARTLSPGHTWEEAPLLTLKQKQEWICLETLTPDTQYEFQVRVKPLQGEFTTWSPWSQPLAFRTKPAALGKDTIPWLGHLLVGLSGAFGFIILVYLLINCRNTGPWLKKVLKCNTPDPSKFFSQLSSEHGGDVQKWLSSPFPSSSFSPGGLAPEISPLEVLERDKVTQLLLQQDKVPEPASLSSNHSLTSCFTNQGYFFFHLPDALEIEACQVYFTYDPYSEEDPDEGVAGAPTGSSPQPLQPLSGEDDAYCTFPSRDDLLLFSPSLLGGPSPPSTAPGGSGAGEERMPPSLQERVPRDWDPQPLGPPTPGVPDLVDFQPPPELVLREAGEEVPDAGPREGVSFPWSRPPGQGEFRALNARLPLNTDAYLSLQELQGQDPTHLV
T1 sequence (looked up) 3: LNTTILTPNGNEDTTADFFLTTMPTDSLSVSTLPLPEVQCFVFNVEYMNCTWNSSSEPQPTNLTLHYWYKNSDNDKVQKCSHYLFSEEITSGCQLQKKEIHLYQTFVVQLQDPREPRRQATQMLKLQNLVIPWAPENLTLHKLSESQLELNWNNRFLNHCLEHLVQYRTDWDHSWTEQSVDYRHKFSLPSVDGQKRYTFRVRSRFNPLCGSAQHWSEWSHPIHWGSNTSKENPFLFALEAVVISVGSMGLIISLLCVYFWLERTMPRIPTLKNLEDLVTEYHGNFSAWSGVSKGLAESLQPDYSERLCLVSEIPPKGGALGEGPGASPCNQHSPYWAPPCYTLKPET

T2: IL-2R on murine splenocytes (C57BL/6)
T2 sequence (P01590 whole entry, looked up): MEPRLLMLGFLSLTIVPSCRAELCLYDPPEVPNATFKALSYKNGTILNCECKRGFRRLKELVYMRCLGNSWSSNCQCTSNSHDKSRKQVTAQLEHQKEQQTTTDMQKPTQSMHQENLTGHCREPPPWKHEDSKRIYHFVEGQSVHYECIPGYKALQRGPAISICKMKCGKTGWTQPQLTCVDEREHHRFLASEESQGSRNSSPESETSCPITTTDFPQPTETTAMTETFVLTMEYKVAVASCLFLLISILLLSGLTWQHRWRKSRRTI
T2 sequence (P16297 whole entry, looked up): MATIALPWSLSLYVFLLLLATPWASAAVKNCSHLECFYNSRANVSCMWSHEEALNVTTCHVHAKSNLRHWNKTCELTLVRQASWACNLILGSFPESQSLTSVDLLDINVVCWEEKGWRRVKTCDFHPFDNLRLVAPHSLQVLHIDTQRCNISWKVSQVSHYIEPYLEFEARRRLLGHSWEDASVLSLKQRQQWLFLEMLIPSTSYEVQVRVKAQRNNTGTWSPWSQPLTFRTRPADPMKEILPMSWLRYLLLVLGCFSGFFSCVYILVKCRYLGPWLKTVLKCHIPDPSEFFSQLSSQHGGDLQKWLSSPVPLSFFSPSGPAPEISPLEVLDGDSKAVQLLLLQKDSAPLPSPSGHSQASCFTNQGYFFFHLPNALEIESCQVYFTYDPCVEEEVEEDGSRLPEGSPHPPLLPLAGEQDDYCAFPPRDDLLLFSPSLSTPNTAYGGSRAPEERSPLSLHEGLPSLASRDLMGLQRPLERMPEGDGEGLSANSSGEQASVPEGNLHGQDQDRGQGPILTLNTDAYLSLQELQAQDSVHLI
T2 sequence (P34902 whole entry, looked up): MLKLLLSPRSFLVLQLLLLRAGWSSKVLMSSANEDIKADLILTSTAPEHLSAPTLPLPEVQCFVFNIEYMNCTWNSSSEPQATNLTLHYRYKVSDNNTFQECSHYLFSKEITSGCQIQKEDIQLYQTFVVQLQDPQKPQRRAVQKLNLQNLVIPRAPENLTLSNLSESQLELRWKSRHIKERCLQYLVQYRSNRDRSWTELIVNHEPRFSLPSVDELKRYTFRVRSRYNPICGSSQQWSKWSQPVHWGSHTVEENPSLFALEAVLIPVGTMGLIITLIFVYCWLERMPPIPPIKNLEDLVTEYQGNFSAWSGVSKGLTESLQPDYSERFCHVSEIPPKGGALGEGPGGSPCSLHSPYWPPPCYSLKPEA

B1: EAD406 (other)
heavy: EVQLVQSGAEVKKPGESLKISCKGSGYAFTNYLIEWVRQMPGKGLEWMGVINPGSGGTNYNEKFKGQVTISADKSISTAYLQWSSLKASDTAMYYCARWRGEGYYAYFDVWGQGTTVTVSSASTKGPSVFPLAPSSKSTSGGTAALGCLVKDYFPEPVTVSWNSGALTSGVHTFPAVLQSSGLYSLSSVVTVPSSSLGTQTYICNVNHKPSNTKVDKRV[omitted - human IgG1 Fc with changes]
light: AIRLTQSPSSFSASTGDRVTITCKASQSVDYNFHLRPRDLISNINVIVLELKGSETTFMCEYADETATIVEFLNRWITFSQSIISTLTPTSSSTKKTQLQLEHLLLDLQMILNGINNYKNPKLTRMLTFKFYMPKKATELKHLQCLEEELKPLEEVLNLAQSKGDSYMNWYQQKPGKAPKLLIYAASNLESGVPSRFSGSGSGTDFTLTISSLQSEDFATYYCQQSNEDPYTFGGGTKVEIKRTVAAPSVFIFPPSDEQLKSGTASVVCLLNNFYPREAKVQWKVDNALQSGNSQESVTEQDSKDSTYSLSSTLTLSKADYEKHKVYACEVTHQGLSSPVTKSFNRGEC
notes: the light chain entry holds VL-linker 1-IL2-linker 2-VL-CL; also called IL-2 fusion protein to antibody A, linker 1 0 AA, linker 2 1 AA
B2: QTY065 (other)
heavy: EVQLVQSGAEVKKPGESLKISCKGSGYAFTNYLIEWVRQMPGKGLEWMGVINPGSGGTNYNEKFKGQVTISADKSISTAYLQWSSLKASDTAMYYCARWRGEGYYAYFDVWGQGTTVTVSSASTKGPSVFPLAPSSKSTSGGTAALGCLVKDYFPEPVTVSWNSGALTSGVHTFPAVLQSSGLYSLSSVVTVPSSSLGTQTYICNVNHKPSNTKVDKRV[omitted - human IgG1 Fc with changes]
light: AIRLTQSPSSFSASTGDRVTITCKASQSVDYGGGNFHLRPRDLISNINVIVLELKGSETTFMCEYADETATIVEFLNRWITFSQSIISTLTPTSSSTKKTQLQLEHLLLDLQMILNGINNYKNPKLTRMLTFKFYMPKKATELKHLQCLEEELKPLEEVLNLAQSKGGGGDSYMNWYQQKPGKAPKLLIYAASNLESGVPSRFSGSGSGTDFTLTISSLQSEDFATYYCQQSNEDPYTFGGGTKVEIKRTVAAPSVFIFPPSDEQLKSGTASVVCLLNNFYPREAKVQWKVDNALQSGNSQESVTEQDSKDSTYSLSSTLTLSKADYEKHKVYACEVTHQGLSSPVTKSFNRGEC
notes: also called IL-2 fusion protein to antibody A, linker 1 3 AA, linker 2 4 AA
B3: FJC828 (other)
heavy: EVQLVQSGAEVKKPGESLKISCKGSGYAFTNYLIEWVRQMPGKGLEWMGVINPGSGGTNYNEKFKGQVTISADKSISTAYLQWSSLKASDTAMYYCARWRGEGYYAYFDVWGQGTTVTVSSASTKGPSVFPLAPSSKSTSGGTAALGCLVKDYFPEPVTVSWNSGALTSGVHTFPAVLQSSGLYSLSSVVTVPSSSLGTQTYICNVNHKPSNTKVDKRV[omitted - human IgG1 Fc with changes]
light: AIRLTQSPSSFSASTGDRVTITCKASQSVDYGGGGNFHLRPRDLISNINVIVLELKGSETTFMCEYADETATIVEFLNRWITFSQSIISTLTPTSSSTKKTQLQLEHLLLDLQMILNGINNYKNPKLTRMLTFKFYMPKKATELKHLQCLEEELKPLEEVLNLAQSKGGGGSDSYMNWYQQKPGKAPKLLIYAASNLESGVPSRFSGSGSGTDFTLTISSLQSEDFATYYCQQSNEDPYTFGGGTKVEIKRTVAAPSVFIFPPSDEQLKSGTASVVCLLNNFYPREAKVQWKVDNALQSGNSQESVTEQDSKDSTYSLSSTLTLSKADYEKHKVYACEVTHQGLSSPVTKSFNRGEC
notes: also called IL-2 fusion protein to antibody A, linker 1 4 AA, linker 2 5 AA
B4: XFO227 (other)
heavy: EVQLVQSGAEVKKPGESLKISCKGSGYAFTNYLIEWVRQMPGKGLEWMGVINPGSGGTNYNEKFKGQVTISADKSISTAYLQWSSLKASDTAMYYCARWRGEGYYAYFDVWGQGTTVTVSSASTKGPSVFPLAPSSKSTSGGTAALGCLVKDYFPEPVTVSWNSGALTSGVHTFPAVLQSSGLYSLSSVVTVPSSSLGTQTYICNVNHKPSNTKVDKRV[omitted - human IgG1 Fc with changes]
light: AIRLTQSPSSFSASTGDRVTITCKASQSVDYGGNFHLRPRDLISNINVIVLELKGSETTFMCEYADETATIVEFLNRWITFSQSIISTLTPTSSSTKKTQLQLEHLLLDLQMILNGINNYKNPKLTRMLTFKFYMPKKATELKHLQCLEEELKPLEEVLNLAQSKGGGDSYMNWYQQKPGKAPKLLIYAASNLESGVPSRFSGSGSGTDFTLTISSLQSEDFATYYCQQSNEDPYTFGGGTKVEIKRTVAAPSVFIFPPSDEQLKSGTASVVCLLNNFYPREAKVQWKVDNALQSGNSQESVTEQDSKDSTYSLSSTLTLSKADYEKHKVYACEVTHQGLSSPVTKSFNRGEC
notes: also called IL-2 fusion protein to antibody A, linker 1 2 AA, linker 2 3 AA

molecular target: T1, trimeric IL-2 receptor on HEK-Blue IL-2 …; test: cell-based or functional assay

Row | EC50 (M), SEAP of HEK-Blue IL-2 reporter cells | Binder
1 | 3.59e-12 M | B1
2 | 3.22e-12 M | B2
3 | 3.16e-12 M | B3
4 | 3.03e-12 M | B4

molecular target: T2, IL-2R on murine splenocytes (C57BL/6); test: cell-based or functional assay

Row | EC50 CD8 cells (nM), pSTAT5 MFI | EC50 NK cells (nM), pSTAT5 MFI | EC50 Treg cells (nM), pSTAT5 MFI | Binder
5 | 15.7 nM | 5.2 nM | 22 nM | B1
6 | 13.9 nM | 2 nM | 8.3 nM | B2
7 | 5.8 nM | 1.9 nM | 8.4 nM | B3
8 | 8 nM | 2.7 nM | 10.6 nM | B4

molecular target: T3, monoclonal anti-human IL-2 antibody 5344 (BD, 555051); test: sandwich ELISA, 5344 coated, fusion protein titrated, anti-human IgG-Peroxidase
T3 construct: Coated capture antibody
Description: The antibody-IL-2 fusion proteins were tested on a sandwich ELISA, to assess the correct folding of the IL-2 portion. […] The obtained signals (Absorbance 450-570 nm) were plotted as function of antibody-IL-2 fusion protein concentration (as log value). The $EC50$ values were interpolated fitting the data with GraphPad Prism 8 (Table 6).

Row | EC50 | Binder
9 | 110 pM | B1
10 | 140 pM | B2
11 | 280 pM | B3
12 | 140 pM | B4

molecular target: monoclonal anti-human IL-2 antibody Nara1; test: ELISA, Nara1 coated, fusion protein titrated, anti-human IgG-Peroxidase; lowest concentration with signal at or above the cut point

Row | Lowest concentration (nM) OD450-570 ≥ CP | Binder
13 | 7.5 nM | B1
14 | 22.5 nM | B2
15 | 2.5 nM | B3
16 | 2.5 nM | B4
